# From PubChem BioAssay AID463173 (ICCB-Longwood Screening Facility, Harvard Medical School, 2010)
# Hit rate of the full screen: of about 52,000 compounds, about 1,700 (3.3%) were called active. Cut-off read from the data, not from the text of the source: active = survival mostly below about 52% (no sharp cut-off); inactive = mostly above about 56%. The list shows a part of the results.
# System: Wild type
# Test: S. aureus survival, RN4220 and DeltatarO strains – OD600, teichoic acid synthesis inhibitors, primary screen (AID 463173)
# Details: S. aureus RN4220 wild type/DeltatarO growth, OD600, 18 h, hits give low values, screened at 18.75 µg/mL (by protocol)
row,SMILES,survival
1,Clc1cccc(CNc2cc(-c3ccccc3)nc3nncn23)c1,inactive: 96%
2,CCc1ccccc1NC(=O)Cn1nc(C(F)(F)F)c2c1CCCC2,inactive: 84%
3,Cc1cc(C)c(NC(=O)CCn2c(=O)c3cccn3c3cccnc32)c(C)c1,inactive: 95%
4,COc1ccc(CCNC(=O)c2ccc3c(c2)OCO3)cc1,inactive: 112%
5,OCCN1CCN(C(c2ccccc2Cl)c2sc3nc(-c4ccco4)nn3c2O)CC1 (stereo not drawn),inactive: 65%
6,Cc1cccc(N2CCn3c2nc2c3c(=O)n(CCc3ccccc3)c(=O)n2C)c1,inactive: 110%
7,COc1cccc(-c2cn3c(n2)sc2cc(C(=O)NCCc4ccc(OC)c(OC)c4)ccc23)c1,inactive: 43%
8,N#CC1=C(N)N(c2cccc(Cl)c2)C2=C(C(=O)CCC2)C1c1cc(CN2CCOCC2)cs1 (stereo not drawn),inactive: 87%
9,CC(C)N1C(=O)C(O)(c2c[nH]c3ccccc23)c2ccccc21 (stereo not drawn),inactive: 119%
10,CCCS(=O)(=O)N1CC(=O)N(c2cc(C)ccc2C)C(C)(C(=O)NC2CCCCCC2)C1 (stereo not drawn),inactive: 127%
11,Cc1cccc(N2C(=O)CS(=O)(=O)C23C(=O)N(Cc2c(F)cccc2Cl)c2ccccc23)c1 (stereo not drawn),inactive: 80%
12,CSc1cccc(NC(=O)CN2CCN(Cc3ccccc3C)S2(=O)=O)c1,inactive: 136%
13,CC1Oc2ccccc2N(CC(=O)NCc2ccccc2)C1=O (stereo not drawn),inactive: 105%
14,Cc1cc(N)c(-n2cc3c(c2-c2ccc(Br)cc2)c(=O)n(C)c(=O)n3C)cc1C,inactive: 77%
15,Cc1cc(C)cc(Oc2coc3cc(OCC(=O)NC4CCCCC4)ccc3c2=O)c1,inactive: 149%
16,Cc1ccc2onc(CNC(=O)NCc3cccc(Cl)c3)c2c1,inactive: 97%
17,CCOc1ccc(-c2cc(C(=O)Nc3ccc(NC(C)=O)cc3)no2)cc1,inactive: 84%
18,O=C(O)CCCNc1cc(N2CCN(C3CCCCC3)CC2)c2noc3c2c1C(=O)c1ccccc1-3,inactive: 85%
19,CCOc1ccc(OCC)c(NC(=O)CC(C)n2nc(C)cc2C)c1 (stereo not drawn),inactive: 77%
20,Cc1ccc(CN(C(=O)c2ccccc2F)c2ccccn2)o1,inactive: 83%

row,SMILES,survival
1,O=C(c1cccn2c(=O)c3cc(Cl)ccc3nc12)N1CCN(c2ccccc2F)CC1,inactive: 71%
2,CCOc1ccc(NC(=O)CC2C(=O)N(c3ccc(C)cc3)C(=O)N2CCC2=CCCCC2)cc1 (stereo not drawn),inactive: 78%
3,Nc1nonc1-c1nc2ccccc2n1Cc1cccc(Cl)c1,inactive: 87%
4,CCOc1ccc(-n2nc(CO)c(C(=O)NCCCc3ccccc3)n2)cc1,inactive: 110%
5,CC(=O)Nc1ccc(S(=O)(=O)N2CCC(c3nnnn3-c3ccccc3)CC2)cc1,inactive: 90%
6,CCOc1ccc(C(=O)Nc2cccc(C(=O)OCc3cc(=O)n4nc(C5CC5)sc4n3)c2)cc1,inactive: 51%
7,O=C1CCC(=O)N1CNc1ccccc1,inactive: 118%
8,COc1ccc(Cl)cc1NC(=O)Cn1cc(C(=O)c2ccc(C)cc2)c(=O)c2ccc(C)nc21,inactive: 72%
9,Cc1ccccc1CN1C(=O)C2(c3ccccc31)N(c1ccccc1)C(=O)CS2(=O)=O (stereo not drawn),inactive: 146%
10,COc1ccc(CCNC(=O)c2c(O)nc3ccccn3c2=O)cc1,inactive: 83%
11,CCOC(=O)c1ccccc1NC(=O)CSc1nc(=O)[nH]c2c1CCC2,inactive: 77%
12,C=Cc1ccc(Cn2c(C)c(CNCCc3ccccc3C)c(C(=O)O)c2C)cc1,inactive: 81%
13,O=C(COc1ccc(Cl)cc1)Nc1ccc(C(=O)OCc2cc(=O)n3ccsc3n2)cc1,inactive: 75%
14,FC(F)(F)Oc1ccc2c(c1)NC(c1ccncc1)=NC(c1cccs1)=N2,inactive: 94%
15,Cc1ccc(NC(=O)CCSc2nc(-c3ccco3)cc(C(F)(F)F)n2)cc1F,inactive: 61%
16,C=CCc1cccc2cc(C(=O)Nc3ccc(F)cc3)c(=O)oc12,inactive: 71%
17,COc1ccc2oc(=O)c(C(=O)Nc3ccc(C(=O)O)cc3)cc2c1,inactive: 133%
18,Cc1ccn2c(=O)c(C(=O)NCCCN3CCCCC3C)c(O)nc2c1 (stereo not drawn),inactive: 90%
19,CCOC(=O)N1CCN(Cc2nc3cc(NC(=O)c4ccc(OC)cc4)ccc3n2C(C)C)CC1,inactive: 89%
20,COc1ccc(OCC(=O)Nc2nnc3n2CCS3)cc1,inactive: 77%

row,SMILES,survival
1,Cc1ccc(NC(=O)C(C)n2nnc3sc4c(c3c2=O)CCCC4)cc1Cl (stereo not drawn),inactive: 67%
2,Cc1c(Cl)cccc1NC(=O)c1ncoc1-c1ccco1,inactive: 85%
3,CC(=O)c1ccc(NC(=O)CCCSc2nc(-c3ccco3)cc(C(F)(F)F)n2)cc1,inactive: 71%
4,CCc1ccc(NC(=O)CSc2nc3ccccc3c(=O)n2CCNC(C)=O)cc1,inactive: 82%
5,CN1CC2(C)CN(C(=O)c3ccccc3Cl)CC(C)(C1)C2,inactive: 112%
6,Oc1ccc(NCc2ccccc2OCc2ccccc2F)cc1,inactive: 89%
7,COc1ccccc1NC(=O)CCN1CCCCC1,inactive: 71%
8,CCOc1ccc(OCC)c(NC(=O)C2CCN(c3nnc(-n4cccc4)s3)CC2)c1,inactive: 63%
9,CCOC(=O)c1cccc(Nc2cc(-c3ccccc3)ncn2)c1,inactive: 40%
10,Cc1c(Cl)cccc1NC(=O)c1ccc2snnc2c1,inactive: 106%
11,CCOC(=O)c1c(C)[nH]c(CCC(=O)NCc2ccccc2Cl)c1C,inactive: 68%
12,Cc1nc(-c2ccccc2)sc1CCNC(=O)C(=O)Nc1ccc2c(c1)OCO2,inactive: 60%
13,COc1ccc(NC(=O)CCCN2C(=O)CCn3nc(-c4cn(C)c5ccccc45)cc32)cc1OC,inactive: 72%
14,COc1cccc(OCCSc2nc(C)c(Cc3ccccc3)c(=O)[nH]2)c1,inactive: 86%
15,Cc1ccc(N(C)C(=O)C2CCN(S(=O)(=O)c3c(C)noc3/C=C/c3c(C)cc(C)cc3C)CC2)cc1,inactive: 73%
16,Cc1cccc(C(=O)NCC(=O)OCc2cc(=O)n3nc(C4CCCCC4)sc3n2)c1,inactive: 65%
17,Cc1cccc(N2CCN(S(=O)(=O)c3ccc4[nH]c5c(c4c3)CCCCC5)CC2)c1C,inactive: 93%
18,CCOC(=O)c1cccc(NC(=O)CC2C(=O)N(c3ccc(OC)cc3)C(=O)N2C2CCCC2)c1 (stereo not drawn),inactive: 120%
